# The full ranking holds about 33,000 sequences; the median of “E-score (-0.5 to 0.5)” is about -0.054, and the highest 2% start at about 0.39. The list shows a part of the results.
# Target: Ylr278c (UniProt Q05854)
# Test: PBM E-score (8-mer binding enrichment) (E-score (-0.5 to 0.5)); higher = stronger / more preferred TF binding; most listed sequences are background and not binding sites
# Details: protein concentration: 200 nM; construct: GST-DNA-binding domain
# Procedure, shortened: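 Bound GST-tagged yeast transcription factors, applied at about 100-200 nM to double-stranded universal all-10-mer Agilent arrays, were detected with fluorescent anti-GST. Scans were normalised with masliner. A modified Wilcoxon-Mann-Whitney statistic, the E-score, was assigned to each ungapped eight-base word pooled with its reverse complement by the Universal PBM Analysis Suite.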
row,Sequence,PBM E-score
1,ATAAACTG,-0.0601
2,TAGAATAA,0.108
3,AAATTATA,0.21
4,CATCTGGC,-0.0551
5,CATTTCGA,0.033
6,CTGGAATC,-0.0172
7,TCATTGAA,-0.169
8,GAGCGGGA,0.192
9,CACAGGCC,-0.133
10,GGGCACAC,-0.173
11,ACCTGCAT,-0.121
12,CTAATAAG,-0.254
13,ATCCTCAT,-0.222
14,AGGCAGTC,-0.0589
15,GGTCCGCA,0.278
16,CCTTCTCC,0.156
17,CCAACGTC,-0.142
18,CTCAATTA,-0.212
19,CGACACGA,0.0964
20,AACGAAGC,-0.0318
21,AAACCTGT,-0.0896
22,ACTAGCAT,-0.086
23,ACATATTC,0.0463
24,CAGACGGA,0.188
25,CGCATACC,0.186

row,Sequence,PBM E-score
1,AAGGCATG,-0.206
2,AGGCGTAA,-0.156
3,AAAGTTTC,-0.12
4,GAGTCGCA,-0.25
5,CAGGTGAG,-0.353
6,GGCAATGA,-0.123
7,CACGCTGG,-0.163
8,CAAGTACA,-0.049
9,CTGACTTC,0.088
10,GGCCCCAC,0.0371
11,AGCAACCG,-0.0664
12,CATCAGGG,-0.141
13,AACGGGCT,0.0368
14,GGTGATTA,0.0698
15,ACCCTCCA,-0.209
16,AATCGGCC,0.24
17,CCGATCCA,0.208
18,AACTTGCG,-0.0744
19,ATCAGACA,-0.161
20,CTAGTTAC,0.00831
21,AAGGATTA,-0.0512
22,GTACATTA,-0.0177
23,AGGTTGAC,-0.187
24,AGTTTGTG,-0.105
25,CTCATGAA,-0.142

row,Sequence,PBM E-score
1,ATAAACAA,-0.0102
2,CAGGGGCA,-0.0773
3,CTCCTTCA,-0.334
4,AGGGATAT,0.0131
5,GTCAAACA,-0.248
6,CCCATGGC,-0.0499
7,AATTTGCA,-0.0325
8,GCGTAACA,0.00805
9,CCGTATCC,0.223
10,CATGTGCC,-0.095
11,ATCCACGG,0.199
12,GTCCCGTA,-0.0338
13,CACACTAC,-0.157
14,AATTTAAC,0.0785
15,GTAGCATA,-0.0709
16,TTAAAAAA,-0.12
17,GTAAGGAA,-0.134
18,CGAGCGAG,0.164
19,ACCCCGTG,0.298
20,CGTAATAC,-0.0173
21,CCGCTGGA,0.146
22,ATTATTCG,0.13
23,CTCCAGGC,-0.113
24,CTTGCGGC,0.0631
25,AATCCCGG,0.439

row,Sequence,PBM E-score
1,GGCAGCAA,-0.0531
2,ACACCCTC,0.0306
3,ATGCGACA,-0.142
4,GGCCGGCC,0.372
5,GCGAACGA,-0.0482
6,CTTCTGCA,-0.0808
7,ACAATTTA,-0.193
8,AACGCACG,0.061
9,GAATCTGA,-0.0915
10,TCACACAA,-0.238
11,AAGTTTGA,0.0364
12,CACGAGCC,-0.0294
13,ACGTCCGA,0.346
14,AGTCTTAC,-0.27
15,AGCTTGCA,-0.0898
16,AAGATGTC,-0.0338
17,AATCGTGT,0.121
18,CTTTCCAA,0.0711
19,AAGCACAT,0.0518
20,AACTCGGA,0.392
21,AGACGTCA,-0.227
22,CATGGTGG,-0.0593
23,CGTATTCC,0.17
24,GCAGACCC,-0.0641
25,CGGCAGCC,0.296

row,Sequence,PBM E-score
1,AATCTTAC,0.0781
2,AGTCCATA,-0.217
3,GATCCGAC,0.285
4,ACTCGGCT,0.0553
5,AGAGATTA,-0.143
6,ACCCGACG,0.235
7,CATAGGAG,-0.136
8,ACTAACCA,-0.0811
9,GCGCCTAA,0.0272
10,CACCGAAA,0.184
11,CTCACAGC,-0.167
12,ACCAATTG,-0.257
13,ATCTGCGG,0.281
14,AAATCCTA,0.0982
15,AGAACCGG,0.345
16,ACGCCTCC,0.145
17,ATCCCCAG,-0.0933
18,AGGGGGAG,-0.183
19,AGCCGTTG,-0.00615
20,ACTGAAGA,0.0196
21,ATCTGAAT,-0.161
22,CCGTTGCC,0.16
23,CCCGGCGC,0.338
24,GGCTGTCA,-0.302
25,ACAGGGAG,-0.105

row,Sequence,PBM E-score
1,CCGAACTC,0.165
2,AGTGCAGG,-0.104
3,AGATACCA,0.0255
4,AGCGGAAA,0.358
5,ACTCTCAT,-0.132
6,CCATGTAA,0.0732
7,TAAGGCAA,-0.0891
8,ATACCTTA,-0.112
9,TCAGGCCA,-0.112
10,AGTGTTAG,-0.115
11,AGTCATTG,-0.277
12,CCACGGCA,0.138
13,GGGCTTAC,0.0645
14,AAGGTGTG,-0.119
15,CCCCTCAA,-0.0006
16,CTACGTCC,0.0551
17,GTACCCCA,0.066
18,ACAGGGCT,-0.323
19,ACATTACC,0.108
20,ACGTAGCC,-0.111
21,ATTTAAGA,-0.154
22,ATTAGCCA,-0.299
23,GTCTATCA,-0.0954
24,CCGGGGAC,0.242
25,ACAGGAAA,0.054

row,Sequence,PBM E-score
1,ACCTCGAA,-0.134
2,ACATGATA,-0.0375
3,GCTGTTCA,-0.292
4,ACAGAATA,-0.0396
5,GAATACAC,-0.0158
6,GCAAGTGA,-0.212
7,TAGGACAA,-0.233
8,AGGTTACA,-0.124
9,CCCGTGGC,0.0225
10,GCCACCTA,-0.232
11,AATCCAAA,0.142
12,CATGGGCA,-0.274
13,GTGCAGCA,-0.0636
14,AATTCACG,-0.0176
15,AAGTAGGG,-0.139
16,CAACCTAC,-0.0449
17,AACTTTTC,-0.0461
18,AGGGCCGG,0.239
19,AACTGGGC,-0.0654
20,AACATCCC,0.147
21,GGGACGCA,-0.28
22,CAGTATTA,-0.0204
23,ACGAGAAT,-0.039
24,AATTGACC,0.0785
25,CGCACTAG,-0.0868

row,Sequence,PBM E-score
1,CTATCCCC,0.0184
2,CGCTCTAG,-0.113
3,CAGGACGA,-0.102
4,AGGTTCCC,-0.0971
5,AAACTGCA,-0.043
6,ACCGGAAG,0.388
7,AGAGCTAT,-0.214
8,CCTACTGC,-0.219
9,CATCCCTA,-0.0767
10,GTCTACAC,-0.00271
11,AACTAACA,-0.0111
12,AATATCCG,0.423
13,GTCAGTAA,-0.188
14,AGTAACCA,-0.077
15,AACCACTC,-0.128
16,CGAGCGAC,-0.0219
17,AAGCATCT,-0.0745
18,CCCTATCA,-0.19
19,ACAATTGT,-0.199
20,ACCTATGA,-0.261
21,CGCGTTTC,0.0125
22,AGCGGTGC,-0.18
23,GATATTAC,0.0972
24,CATGCAGA,-0.211
25,AATCGTAT,-0.151

row,Sequence,PBM E-score
1,CTAGGCTA,-0.193
2,AGCGGCAC,0.115
3,AGGTGTAG,-0.123
4,AAATATTC,0.0188
5,GGGTAACC,-0.0903
6,CGAGTAAA,0.0658
7,GTCTGGGA,-0.341
8,AAATAGAA,-0.00131
9,CCCTTGGC,-0.251
10,CGATTTAG,0.251
11,GGCACTAC,-0.0733
12,AAGTCGGT,0.113
13,GCGCTAAA,0.0854
14,GTTCGTTA,-0.185
15,CGGTTGAG,0.047
16,GAGTCGCC,0.0773
17,ACTATTCC,0.279
18,ATGTGCGG,0.224
19,GGTACTGA,-0.0854
